Measured values: PubChem BioAssay AID686979 (National Center for Advancing Translational Sciences (NCATS), 2013)
Out of some 420,000 compounds screened, about 50,000 (12%) were called active. Inconclusive means that the source gave no clear call. Such entries were picked first, then a sample of the others. Calls follow the shape of the dose curve; as a rule, active = well fitted inhibition curve with a large enough effect; inconclusive = small, poorly fitted or top-dose-only effect; inactive = flat fitted curve, though single readings scatter. Potencies of inconclusive entries are left out as doubtful fits.

experiment: qHTS for Inhibitors of human tyrosyl-DNA phosphodiesterase 1 (TDP1): qHTS in cells in presence of CPT; settings: chicken DT40 Tdp1-/-;hTDP1 cells + 20 nM CPT, ATP luminescence, 48 h; activity change, negative = growth inhibition: at 46.2 µM (top of the series) unless noted; also: nearly all actives have a fitted effect of over 55% in size
Method in brief: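 Chicken DT40 Tdp1-/- cells stably complemented with human TDP1 were seeded at 400 cells/well in medium containing 20 nM camptothecin, exposed to pin-transferred compounds, and grown at 37 °C for at least 48 hr. Viability was read as ATP luminescence.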
% is scaled to controls: 0 for no effect and ±100 for the full control effect; potency is read from the fitted curve at half-maximal effect; tags tell the direction and shape of the fitted curve.

| SMILES | activity change, negative = growth inhibition | Potency |
| --- | --- | --- |
| CCOc1ccc(OCC(=O)N2CCOCC2)cc1 | inactive: 2.28% | – |
| Fc1ccc(Nc2ncncc2-c2ccccc2C(F)(F)F)cc1 | – | inconclusive [inhibitor, single point] |
| [O-]/C(=C(\C(=S)Nc1ccccc1F)[n+]1ccccc1)c1ccc(-c2ccccc2)cc1 | inactive: -5.45% | – |
| Cc1cccc(-n2nnnc2SCn2nnc3ccccc3c2=O)c1 | – | inconclusive [inhibitor, partial curve] |
| CC(C)N(C(=O)CSc1nc2ccccc2n1Cc1ccccc1)C(C)C | – | inconclusive [inhibitor, single point] |
| C=C1CCN([C@@H](CC(C)C)C(=O)NCc2ccc(Cl)c(Cl)c2)S(=O)(=O)c2ccccc21 | – | inconclusive [inhibitor, single point] |
| Cc1ccccc1-c1cc2c(c(OC3CCOC3)c1)OCCN(C(=O)Cn1cccn1)C2 (stereo not given) | inactive: -0.374% | – |
| O=C(CCc1nc2ccccc2c(=O)[nH]1)N1CCN(S(=O)(=O)c2ccc(Cl)c(C(F)(F)F)c2)CC1 | – | inconclusive [inhibitor, single point] |
| Cn1c(N)c(C(=O)COC(=O)c2cc(C3CC3)nc3ccccc23)c(=O)n(C)c1=O | – | active: 13 µM |
| Cc1ccc(CN2CCSc3ccc(C(=O)Nc4ccc(Cl)cc4)cc32)cc1 | – | active: 23.1 µM |
| Oc1ccc(-c2csc(-c3cccnc3)n2)c(O)c1 | – | inconclusive [inhibitor, single point] |
| CCn1cc(C(=O)N2CCN(c3cc(Cl)ccc3C)CC2)c2cc(OC)c(OC)cc2c1=O | – | active: 11.6 µM |
| Oc1ccccc1-c1cc(-c2ccccc2)n[nH]1 | – | inconclusive [inhibitor, single point] |
| CC(NC(=O)c1cccc(S(=O)(=O)N2CCN(C)CC2)c1)C1CC2CCC1C2 (stereo not given) | inactive: -13% | – |
| CNC(=O)COc1coc(CN2CCN(c3ccccc3OC)CC2)cc1=O | inactive: 9.13% | – |
| CC(C)(CNC(=S)NCCc1ccccc1)CNC(=S)NCCc1ccccc1 | – | active: 8.2 µM |
| O=C(Nc1cccc2c1CCCC2)c1cc([N+](=O)[O-])cc([N+](=O)[O-])c1 | – | inconclusive [inhibitor, partial curve, poor fit] |
| COc1ccc(OC)c(S(=O)(=O)NC(=O)C2(C)CCN2C(=O)CC2CCCC2)c1 (stereo not given) | inactive: -0.895% | – |
| O=C(O)c1ccc(-c2nc(-c3ccc(Cl)c(Cl)c3)cs2)cc1 | – | inconclusive [inhibitor, single point] |
| Cc1ccc(N2CC(C(=O)NCCC3=CCCCC3)CC2=O)cc1 (stereo not given) | inactive: 9.21% | – |
| COCCNC(=O)c1ccc2c3n(nc2c1)-c1ccc(C)cc1CO3 | – | inconclusive [inhibitor, single point] |
| O=S(=O)(NCC(c1ccc2c(c1)OCO2)N1CCOCC1)c1ccc(F)cc1 (stereo not given) | inactive: -0.473% | – |
| NC(=O)c1ccccc1N=Cc1cccnc1 | – | inconclusive [inhibitor, partial curve, poor fit] |
| Cc1ccccc1CN1CCC(CNc2ncnc3onc(-c4ccc(Cl)cc4)c23)CC1 | – | inconclusive [inhibitor, single point] |

| SMILES | activity change, negative = growth inhibition | Potency |
| --- | --- | --- |
| CCn1c(COc2ccccc2)nnc1SCC(=O)c1cccc([N+](=O)[O-])c1 | – | inconclusive [inhibitor, single point] |
| CCN(CC(=O)NC(C)C)Cc1nc2c(Br)cc(Br)cc2c(=O)[nH]1 | inactive: -24.3% | – |
| CN(C)S(=O)(=O)n1cc(/C=C(\NC(=O)c2ccccc2F)C(=O)NCCCn2ccnc2)c2ccccc21 | – | inconclusive [inhibitor, single point] |
| Cc1ccc2c(C)nc(N/C(N)=N/S(=O)(=O)c3ccc([N+](=O)[O-])cc3)nc2c1 | – | inconclusive [inhibitor, single point] |
| O=C(Cc1csc2ccccc12)NCc1cccc(Br)c1 | – | active: 16.4 µM |
| Cc1ccc2nc(/C(C#N)=C/c3cccc(Br)c3)[nH]c2c1 | – | active: 14.6 µM |
| Cc1c(OC(C)C(=O)NCc2ccccn2)ccc2c3c(c(=O)oc12)CCC3 (stereo not given) | – | inconclusive [inhibitor, single point] |
| CCOC(=O)N1CCN(C(=O)c2ccccc2NC(=O)COc2ccccc2C)CC1 | – | inconclusive [inhibitor, single point] |
| CCCn1c(C2CCCN2c2nc(-c3cccc(Br)c3)cs2)nc2ccccc21 (stereo not given) | – | inconclusive [inhibitor, single point] |
| CCOC(=O)c1ccc(S(=O)(=O)N2CCN(c3nc(-c4ccccc4)nc4ccccc34)CC2)cc1 | inactive: 20% | – |
| COc1ccc(N2C(=O)c3ccccc3NC(=O)C2C(=O)NCc2ccco2)cc1 (stereo not given) | – | inconclusive [inhibitor, partial curve] |
| Cc1noc(C)c1CSc1nc2ccccc2s1 | – | inconclusive [inhibitor, single point] |
| COc1cc(=O)n2c(c1C(=O)NCc1nonc1C)CCN(Cc1c[nH]c3ccccc13)CC2 | – | inconclusive [inhibitor, single point] |
| O=C(Cc1ccc(Cl)cc1)Nc1ccc(N2CCN(C(=O)c3ccco3)CC2)c(Cl)c1 | – | active: 14.6 µM |
| Fc1ccccc1C(c1nnnn1C1CCCC1)N1CCN(Cc2ccccc2)CC1 (stereo not given) | – | active: 20.6 µM |
| COc1ccccc1N(C)S(=O)(=O)c1ccc(Cl)c(C(=O)Nc2ccccc2N2CCOCC2)c1 | – | active: 3.66 µM |
| Cc1cc(NC(=O)CCCN2C(=O)/C(=C/c3ccccc3Cl)SC2=S)no1 | – | inconclusive [inhibitor, single point] |
| CC(=O)C1=C(C)N(Cc2ccccc2)C(=O)N[C@@H]1c1cccc(C(F)(F)F)c1 | – | inconclusive [inhibitor, partial curve] |
| CSCc1cc(N2CCCC2)nc(-c2ccccc2)n1 | inactive: 8.04% | – |
| CCCc1nc2oc3c(OC)ncnc3c2c2c1COC(C)(C)C2 | – | inconclusive [inhibitor, partial curve, poor fit] |
| CCN(C(=O)/C=C/c1ccc2c(c1)OCO2)c1ccccc1 | – | inconclusive [inhibitor, single point] |
| CCN(c1ccccc1)S(=O)(=O)c1cccc(C(=O)NCC2(N(C)C)CCCCC2)c1 | inactive: -13.7% | – |
| O=C(O)CC12CC3CC(C1)CC(n1ncc(NCc4ccccc4)c(Cl)c1=O)(C3)C2 | inactive: 1.42% | – |
| CCCCN1CC(COCc2ccccc2)OCCS1(=O)=O (stereo not given) | inactive: 6.67% | – |

| SMILES | activity change, negative = growth inhibition | Potency |
| --- | --- | --- |
| Cc1nc2sccn2c1-c1nc(-c2cc3ccccc3o2)cs1 | – | inconclusive [inhibitor, single point] |
| Cc1ccc(NS(=O)(=O)c2cccc(C(=O)N3CCCCC3)c2)cc1 | inactive: -25.6% | – |
| Cc1ccc(NC(=O)C2CCCN(c3ncnc4c3nc3n4CCCCC3)C2)cc1F (stereo not given) | – | active: 18.4 µM |
| Cc1ccsc1CN(C)C(=O)CN1C(=O)NC2(CCCc3ccccc32)C1=O (stereo not given) | inactive: -22.2% | – |
| Cc1ccc(N2CCN(C(=O)c3cc(COc4c(C)cccc4C)on3)CC2)c(C)c1 | – | inconclusive [inhibitor, single point] |
| COc1cc(NS(=O)(=O)c2ccc(NC(=O)C(C)Oc3ccc(Cl)cc3Cl)cc2)nc(OC)n1 (stereo not given) | inactive: -13.2% | – |
| O=C(Nc1cccc(C(F)(F)F)c1)C1CCN(c2nnc(-n3cccc3)s2)CC1 | – | inconclusive [inhibitor, single point] |
| N#CC(C(=O)NC1CC1)c1nc2ccccc2nc1N1CCCC1 (stereo not given) | – | inconclusive [inhibitor, single point] |
| Cc1nc2cccnc2n1-c1cccc(C(=O)NCc2ccc(OC(C)C)cc2)c1 | – | inconclusive [inhibitor, single point] |
| COc1cccc(/C=N/NC(=O)c2cc(C34CC5CC(CC(C5)C3)C4)[nH]n2)c1 | – | inconclusive [inhibitor, single point] |
| Cc1cccc(C)c1NC(=O)C(c1ccc(C(F)(F)F)cc1)n1c(=O)c(-c2ccccc2)nc2ccccc21 (stereo not given) | – | inconclusive [inhibitor, single point] |
| CC(=O)c1ccc(N2C(=O)CC(N3CCN(S(=O)(=O)c4ccc(C)c(C)c4)CC3)C2=O)cc1 (stereo not given) | inactive: -12.6% | – |
| COc1ccc(-c2ccc3oc(-c4ccc(OC)cc4)c(-c4cc(OC)c(OC)c(OC)c4)c3c2)cc1 | inactive: -10.6% | – |
| COc1ccc2[nH]cc(CCNc3ncncc3-c3c(C)noc3C)c2c1 | – | inconclusive [inhibitor, single point] |
| CCOc1ccc(NC(=O)c2c(NC(=O)c3ccco3)sc3c2CCC(C(C)(C)C)C3)cc1 (stereo not given) | inactive: -6.58% | – |
| CN(CCOc1ccc(Cl)cc1)C(=O)c1cccc(S(=O)(=O)N2CCN(Cc3ccccc3)CC2)c1 | – | active: 14.6 µM |
| CN(C(=O)c1cccc(NC(=O)Cc2ccc(NC(=O)C3CCCN(C(=O)c4ccccc4)C3)cc2)c1)C1CCC1 (stereo not given) | – | inconclusive [inhibitor, single point] |
| C/C(=N\NC(=O)c1c([N+](=O)[O-])c(C)nn1C)c1ccc(NC(=O)c2ccc(C)o2)cc1 | inactive: -21.8% | – |
| O=C(NCc1ccc(Cl)c(Cl)c1)c1cccnc1 | inactive: -25.4% | – |
| COc1cc(CN2CCC3(CCC(CNC(=O)c4ccco4)O3)CC2)ccc1O (stereo not given) | inactive: 11.8% | – |
| COc1cc(Cn2c(N)c(C#N)c3nc4ccccc4nc32)cc(OC)c1 | – | inconclusive [inhibitor, single point] |
| O=c1[nH]c(=S)[nH]c2c1C(c1cccc(C(F)(F)F)c1)OC(CCc1ccccc1)C2 (stereo not given) | – | inconclusive [inhibitor, single point] |
